# Data: US20250382268A1, “METHODS AND COMPOSITIONS FOR SELECTIVELY INHIBITING PATHOGENIC MICROBES” (priority 2019, published 2025)
# System: Staphylococcus aureus
# Experiment: microbe, parasite or virus in culture
# Conditions: VRSA, read-out: Staphylococcus aureus MIC, VRSA NR-49120
row,SMILES,MIC [µg/mL]
1,"OCc1ccccc1Sc1c[nH]c2ccc(Br)cc12 [Compound 174AT, (2-((5-bromo-1H-indol-3-yl)thio)phenyl)methanol]",16
2,"FC(F)(F)c1ccccc1Sc1c[nH]c2ccc(Br)cc12 [Compound 174AV, 5-bromo-3-((2-(trifluoromethyl)phenyl)thio)-1H-indole]",2
3,"FC(F)(F)c1ccc2[nH]cc(Sc3ccccc3Br)c2c1 [Compound 174AX, 3-((2-bromophenyl)thio)-5-(trifluoromethyl)-1H-indole]",1
4,"Cc1ccccc1Sc1c[nH]c2ccc(Br)cc12 [Compound 174AY, 5-bromo-3-(o-tolylthio)-1H-indole]",2
